The source of these data is PMC4336329 (PLoS ONE, 2015).

Hit rate of the full screen: of about 310,000 compounds, about 2,200 (0.71%) showed an effect of 50% or more. Effects have a minus sign here. The list shows a part of the results.

Chain of human ether-à-go-go-related gene (hERG) potassium channel (Q12809 whole entry, looked up): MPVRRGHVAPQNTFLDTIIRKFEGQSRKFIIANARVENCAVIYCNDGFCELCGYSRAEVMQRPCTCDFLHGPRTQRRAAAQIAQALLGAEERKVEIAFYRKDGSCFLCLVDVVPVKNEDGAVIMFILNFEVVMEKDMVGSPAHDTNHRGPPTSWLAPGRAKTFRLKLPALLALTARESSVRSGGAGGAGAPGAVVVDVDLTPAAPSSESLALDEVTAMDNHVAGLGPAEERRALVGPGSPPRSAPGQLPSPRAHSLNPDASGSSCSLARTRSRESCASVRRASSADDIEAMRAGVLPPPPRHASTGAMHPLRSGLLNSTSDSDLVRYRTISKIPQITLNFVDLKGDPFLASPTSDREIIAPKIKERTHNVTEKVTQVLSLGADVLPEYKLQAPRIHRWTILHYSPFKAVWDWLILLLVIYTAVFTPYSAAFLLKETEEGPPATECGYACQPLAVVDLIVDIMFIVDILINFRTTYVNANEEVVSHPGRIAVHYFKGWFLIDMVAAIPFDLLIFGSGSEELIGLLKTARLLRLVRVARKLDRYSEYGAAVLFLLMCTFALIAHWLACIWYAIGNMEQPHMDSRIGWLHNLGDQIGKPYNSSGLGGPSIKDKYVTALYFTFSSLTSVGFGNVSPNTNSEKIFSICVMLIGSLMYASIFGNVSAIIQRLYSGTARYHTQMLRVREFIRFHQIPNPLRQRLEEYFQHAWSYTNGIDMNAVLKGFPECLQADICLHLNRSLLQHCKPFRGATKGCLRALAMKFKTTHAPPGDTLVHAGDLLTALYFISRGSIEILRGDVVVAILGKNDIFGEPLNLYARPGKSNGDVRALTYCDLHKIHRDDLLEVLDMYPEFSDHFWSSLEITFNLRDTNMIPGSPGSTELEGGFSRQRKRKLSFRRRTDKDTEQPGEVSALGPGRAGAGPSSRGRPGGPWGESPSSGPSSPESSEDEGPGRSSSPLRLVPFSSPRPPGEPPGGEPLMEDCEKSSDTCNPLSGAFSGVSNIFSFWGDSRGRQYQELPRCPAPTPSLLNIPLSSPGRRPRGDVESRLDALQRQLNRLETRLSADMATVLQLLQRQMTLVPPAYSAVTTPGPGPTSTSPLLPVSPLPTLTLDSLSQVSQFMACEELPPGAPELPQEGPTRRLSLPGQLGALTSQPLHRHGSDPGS

This test concerns the target human ether-à-go-go-related gene (hERG) potassium channel (human, UniProt Q12809). Put plainly: primary screen, population patch clamp on CHO cells stably expressing hERG.
Turning to `Cc1nc(N2CCN(c3ccccc3)CC2)[nH]c(=O)c1Cc1ccccc1`, the “hERG current change (%, negative = inhibition) at 1uM” value is 5.23%. As for `COc1cc(NC(=O)c2c(F)c(F)c(OC)c(F)c2F)ccc1NC(=O)c1cccs1`, the figure is 6.32%; as for `COc1cccc(C(=O)N/N=c2\oc3c(OC)cccc3cc2C(=O)NCc2ccccc2)c1`, 4.53%; as for `Cc1ccc(/C(O)=C2\C(=O)C(=O)N(C)C2c2ccc(Br)cc2)cc1` (stereo not drawn), 10.9%. Consider `CCN(CC)c1ccc2c(c1)OC(N)=C(C#N)C2c1cccnc1` (stereo not drawn), for which the “hERG current change (%, negative = inhibition) at 1uM” value is 6.3%. The value for `O=C1CCCN1CCC(=O)N1CCCC(Nc2ccc(F)cc2)C1` (stereo not drawn) was -3.86%; that for `O=c1[nH]c2cc(Cl)cc(Cl)c2[nH]c1=O` was 13.8%. Regarding `COc1ccc(C2NC(=O)CCC2[N+](=O)[O-])cc1OC` (stereo not drawn), the “hERG current change (%, negative = inhibition) at 1uM” value is recorded as 9.42%. With `COc1ccccc1C(=O)NNC(=O)c1ccccc1[N+](=O)[O-]`, the “hERG current change (%, negative = inhibition) at 1uM” value was found to be 12%. For the compound `CC12CCC(C(=O)Nc3ccccc3)(C(Br)C1=O)C2(C)C` (stereo not drawn), the “hERG current change (%, negative = inhibition) at 1uM” value amounted to 0.0202%. With `COc1ccccc1NC(=O)COc1ccc(C(=O)NCc2ccccc2)cc1OC`, the “hERG current change (%, negative = inhibition) at 1uM” value is on record as 11.8%. `CC(=O)N1CCN(Cc2nc3cc(NC(=O)c4cccc(Br)c4)ccc3n2C)CC1`: the “hERG current change (%, negative = inhibition) at 1uM” value is reported as 10.5%. `COc1ccc(CN2CCN(S(=O)(=O)c3ccccc3)CC2)cc1Br.O=C(O)C(=O)O`: the “hERG current change (%, negative = inhibition) at 1uM” value is -2.93%. Take `O=C1OCc2cc(NC(=O)C3COc4ccccc4O3)ccc21` (stereo not drawn): the “hERG current change (%, negative = inhibition) at 1uM” value worked out at 4.29%. As for `CC1(C)CC(NC(=O)C(=O)NCCc2ccc(Cl)cc2)CC(C)(C)N1`, the “hERG current change (%, negative = inhibition) at 1uM” value worked out at 2.48%. As to `COc1cc(/C=C2\C(=N)N3N=C(S(C)(=O)=O)SC3=NC2=O)cc(OC)c1OCCOc1cccc(C)c1`, the “hERG current change (%, negative = inhibition) at 1uM” value is reported as 10.4%. Turning to `Cc1cc(C)cc(OCCn2ccnc2)c1`, the “hERG current change (%, negative = inhibition) at 1uM” value amounted to 13.1%. Turning to `CC(C)=C1SC(N2CCN(c3ccc(Cl)cc3)CC2)=NC1=O`, the “hERG current change (%, negative = inhibition) at 1uM” value was 14.5%. Regarding `S=c1nn[nH]n1C12CC3CC(CC(C3)C1)C2`, the “hERG current change (%, negative = inhibition) at 1uM” value stood at 6.97%. The value for `CC1(C)Cc2ccccc2C(/C(C#N)=N/O)=N1` was 6.29%; that for `CCNC(=O)CC1C(=O)N(c2ccccc2)C(=O)N1CCC(C)C` (stereo not drawn) was 7.67%. As for `COc1ccc(NC(=O)COc2ncnc3ccccc23)cc1S(=O)(=O)N1CCOCC1`, the “hERG current change (%, negative = inhibition) at 1uM” value is listed as 7.05%. With `CC12CCC(=O)N1c1ccccc1C(=O)N2c1ccccc1` (stereo not drawn), the “hERG current change (%, negative = inhibition) at 1uM” value is recorded as 11.1%. Consider `Cc1cc(C)n(-c2ccc(C(=O)Nc3ccccc3N3CCOCC3)cc2)n1`, for which the “hERG current change (%, negative = inhibition) at 1uM” value turned out to be 4.71%. As for `COc1ccc(/C=N/NC(=O)c2cc(Br)ccc2O)cc1Cn1cc(Cl)cn1`, the “hERG current change (%, negative = inhibition) at 1uM” value is -4.94%. As for `Cc1cc(C)cc(NC(=O)CCn2cnc3cc(C)c(C)cc32)c1`, the figure is 8.3%; as for `O=C(COc1ccc(Cl)cc1)Nc1nc(-c2cccs2)cs1`, 14.5%. Take `CCOC(=O)N1CCN(Cc2nc(C3CC3)no2)CC1`: the “hERG current change (%, negative = inhibition) at 1uM” value turned out to be 11.8%.

As to `Cc1c(C)c2ccc(OC(C)C(=O)N[C@@H](Cc3c[nH]c4ccccc34)C(=O)O)c(C)c2oc1=O` (stereo partly drawn), the “hERG current change (%, negative = inhibition) at 1uM” value is 8.32%. As for `CC(=O)O/N=C(/C)c1ncc(C(F)(F)F)cc1N1CCOCC1`, the figure is 18%; as for `O=c1[nH]c2ccc(NCc3ccc(OCc4ccccc4Cl)cc3)cc2[nH]1`, 10.8%; as for `CCc1ccc(NC(=O)Cc2cn(C)c3ccccc23)cc1`, 14.5%. `Cc1cc(N)n2nc(-c3ccccc3)cc2n1`: the “hERG current change (%, negative = inhibition) at 1uM” value was determined as 0.508%. As for `N/C(CN1CCCC1=O)=N\OC(=O)c1ccc(Cl)c(Cl)c1`, the “hERG current change (%, negative = inhibition) at 1uM” value is reported as -0.813%. Regarding `CCCN1C(=O)c2ccccc2NC1c1ccc(C)cc1` (stereo not drawn), the “hERG current change (%, negative = inhibition) at 1uM” value was 8.89%. As to `COc1cccc(N2CCN(C(=O)C3CCN(S(=O)(=O)c4ccc5c(c4)CC(C)N5C(C)=O)CC3)CC2)c1` (stereo not drawn), the “hERG current change (%, negative = inhibition) at 1uM” value is listed as -5.86%. In the case of `COc1cc2[nH]c(C(=O)N3CCc4ccccc43)cc2c(OC)c1OC`, the “hERG current change (%, negative = inhibition) at 1uM” value came out at 6.43%. On to `O=C(c1cccc(S(=O)(=O)NCc2ccccc2)c1)N1CCCCC1`, for which the “hERG current change (%, negative = inhibition) at 1uM” value is listed as 9.32%. `CCN(CC(=O)Nc1ccc(NC(C)=O)cc1)C(=O)c1ccc2c(c1)S(=O)(=O)N=C1CCCCCN12`: the “hERG current change (%, negative = inhibition) at 1uM” value is on record as 12.6%.

Turning to `Cc1c([N+](=O)[O-])c(C(=O)Nc2ccc3c(c2)OCCO3)nn1C`, the “hERG current change (%, negative = inhibition) at 1uM” value is 14.7%. For the compound `CN(C)S(=O)(=O)N1CCC(Oc2ccc(C(=O)NCc3cnn(C)c3)cc2)CC1`, the “hERG current change (%, negative = inhibition) at 1uM” value is reported as 15.7%. As for `COc1ccc(CN2CC[C@H]3C=CC[C@@H](C(=O)Nc4ccc(Cl)c(C(F)(F)F)c4)[C@H]3C2=O)cc1OC`, the “hERG current change (%, negative = inhibition) at 1uM” value was 3.9%. `CCN(CC)CCCNC(=O)C1CCN(c2ncnc3c2sc2cccc(F)c23)CC1`: the “hERG current change (%, negative = inhibition) at 1uM” value is reported as -8.82%. For `CC(c1ccccc1)(c1ccccc1)c1ccncc1`, the “hERG current change (%, negative = inhibition) at 1uM” value worked out at 8.99%. For the compound `CC1C=CCC2C(=O)N(c3ccc(Cl)cc3O)C(=O)C12` (stereo not drawn), the “hERG current change (%, negative = inhibition) at 1uM” value is listed as -0.941%.
